# Laboratory results taken from PubChem BioAssay AID720708 (National Center for Advancing Translational Sciences (NCATS), 2013).
# Hit rate of the full screen: of about 360,000 compounds, about 660 (0.18%) were called active. Inconclusive means that the source gave no clear call. Such entries were picked first, then a sample of the others. Calls come from the whole dose curve; as a rule, active = well fitted inhibition curve with a large enough effect; inconclusive = small, poorly fitted or top-dose-only effect; inactive = no such curve, though single readings can be large or run the other way. No potency is given beside an inconclusive call; the fits are too rough.
# Target: Rap guanine nucleotide exchange factor 4 (Homo sapiens) (UniProt Q8WZA2)
# Chain of UniProt Q8WZA2 (Q8WZA2 whole entry, looked up): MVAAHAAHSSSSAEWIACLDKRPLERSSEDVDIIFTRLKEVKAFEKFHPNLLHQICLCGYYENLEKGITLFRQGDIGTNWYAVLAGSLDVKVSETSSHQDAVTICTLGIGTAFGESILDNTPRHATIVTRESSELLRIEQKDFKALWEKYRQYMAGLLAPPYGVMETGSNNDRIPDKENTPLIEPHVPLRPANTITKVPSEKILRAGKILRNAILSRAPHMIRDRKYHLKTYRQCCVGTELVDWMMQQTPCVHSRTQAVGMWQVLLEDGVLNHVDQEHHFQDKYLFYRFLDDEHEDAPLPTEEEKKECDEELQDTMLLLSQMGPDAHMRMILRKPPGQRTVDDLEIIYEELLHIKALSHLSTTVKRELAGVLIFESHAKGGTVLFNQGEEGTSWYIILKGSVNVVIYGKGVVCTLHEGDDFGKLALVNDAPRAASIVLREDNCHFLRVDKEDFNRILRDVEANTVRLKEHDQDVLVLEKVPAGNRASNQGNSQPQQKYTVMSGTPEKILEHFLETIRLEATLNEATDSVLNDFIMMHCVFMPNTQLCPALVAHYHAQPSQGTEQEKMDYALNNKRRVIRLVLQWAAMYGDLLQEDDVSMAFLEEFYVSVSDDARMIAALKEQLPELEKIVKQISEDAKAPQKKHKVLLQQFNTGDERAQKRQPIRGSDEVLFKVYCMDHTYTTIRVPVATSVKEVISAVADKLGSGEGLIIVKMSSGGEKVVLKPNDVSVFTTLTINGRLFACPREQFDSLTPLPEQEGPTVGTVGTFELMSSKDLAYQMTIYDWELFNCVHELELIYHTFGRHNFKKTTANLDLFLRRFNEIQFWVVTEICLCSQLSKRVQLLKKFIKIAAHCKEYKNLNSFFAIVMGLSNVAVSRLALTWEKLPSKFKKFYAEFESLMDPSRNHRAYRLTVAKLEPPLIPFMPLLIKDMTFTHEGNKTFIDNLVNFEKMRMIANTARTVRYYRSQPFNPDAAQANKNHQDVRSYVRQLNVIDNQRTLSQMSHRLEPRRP
# Test: qHTS for Antagonist of cAMP-regulated guanine nucleotide exchange factor 2 (EPAC2): primary screen; note: nearly all actives have a fitted effect of over 45% in size
# Conditions: EPAC2 GEF exchange of Rap1B-BODIPY-GDP, fluorescence; activity, negative = inhibition: at 114 µM (top of the series) unless noted
# % is set by controls: 0 for no effect and ±100 for the full control effect; potency is the fitted concentration of half-maximal effect; tags give direction and shape of the fitted curve.
Compound,Potency,"activity, negative = inhibition"
Nc1nc(COc2ccc(Cl)cc2)cs1,"inconclusive [inhibitor, full curve]",–
CC(=O)C[C@H](O)CC(=O)[C@@H]1OC(=O)CCCCCc2ccccc21,inactive,–
COc1ccccc1NCC(=O)c1ccc(C)c(C)c1,inactive,–
CCOC(=O)c1ccc(-c2ccc(/C=C(\C#N)C(=O)NCc3cccs3)o2)cc1,inactive,–
COc1cc(OC)c2c(-c3cccc(-c4ccoc4)c3)cc(=O)oc2c1,"inconclusive [inhibitor, full curve]",–
ON=C(c1ccccc1)c1ccc2c3c(cccc13)CC2,active: 14.1 µM,–
COc1cccc(-c2c(-c3ccccc3OC)ncn2Cc2cccc(-c3ccccc3)c2)c1,"inconclusive [inhibitor, full curve, poor fit]",–
CCCCC1CC2=C(C(=O)OC(C)(C)O2)C(c2cccc3ccccc23)O1 (stereo not drawn),"inconclusive [inhibitor, partial curve]",–
CCCCNC(=O)c1onc(CSc2cccc(Cl)c2)c1C(=O)O,"inconclusive [inhibitor, partial curve]",–
CCOc1cc2c3c(c1)C(C)=CC(C)(C)N3C(=O)C2=O,"inconclusive [inhibitor, full curve]",–
COc1cc(/C=C2\SC(=Nc3ccc(Cl)c(C(=O)O)c3)NC2=O)c(Br)c(Br)c1O,"inconclusive [inhibitor, full curve]",–
CCCC(C(=O)NCCC(C)C)N(Cc1ccccc1Cl)C(=O)c1snc(C(N)=O)c1N (stereo not drawn),"inconclusive [inhibitor, partial curve]",–
Cc1ccc2nc(/C(C#N)=C\c3ccc([N+](=O)[O-])o3)[nH]c2c1,inactive,–
Cc1ccccc1[C@@]1(C)ON(c2ccccc2C(F)(F)F)C1=O,"inconclusive [inhibitor, partial curve]",–
COc1ccc2oc(C)c(C(=O)c3ccc(C)cc3)c2c1,"inconclusive [inhibitor, full curve]",–
CSc1ncccc1C(=O)N1CCCC(C(=O)c2ccc3ccccc3c2)C1 (stereo not drawn),–,inconclusive: -30.2% [inhibitor]
Cc1ccc(-n2nc(C(=O)N3CCOCC3)cc2-c2ccc(Cl)cc2)cc1,inactive,–
CCN(CC)C(=O)Oc1ccc2ccccc2c1Br,"inconclusive [inhibitor, partial curve]",–
Cc1ccc(N=Cc2cc3c(cc2[N+](=O)[O-])OCO3)cc1[N+](=O)[O-],"inconclusive [inhibitor, single point]",–
CCc1nc2c(OCC3CCCCC3)cccn2c1N(C)C(=O)c1ccc(C)cc1,"inconclusive [inhibitor, single point]",–
CC(NS(=O)(=O)OCC(Cl)(Cl)Cl)c1ccc(Br)cc1 (stereo not drawn),"inconclusive [inhibitor, single point]",–
CCN1C(=O)C2(/C(=C(\O)c3ccc4c(c3)OCCO4)C(=O)C(=O)N2CCCOC)c2ccccc21 (stereo not drawn),"inconclusive [inhibitor, partial curve]",–

Compound,Potency,"activity, negative = inhibition"
COc1ccccc1NC(=O)NCC1(N(C)C)CCCCC1,inactive,–
O=C(COC(=O)c1ncc(Cl)c(Cl)c1Cl)Nc1ccccc1OC(F)F,"inconclusive [inhibitor, partial curve]",–
COc1cc(OC)cc(C2=Cc3ccccc3C(CC(C)=O)N2c2ccc(C#CCCO)cc2)c1 (stereo not drawn),"inconclusive [inhibitor, single point]",–
O=C(Nc1cccc(C(F)(F)F)c1)C1Cc2c(-c3ccccc3)ccnc2O1 (stereo not drawn),"inconclusive [inhibitor, single point]",–
COc1ccc(/C=C(\C#N)C(=O)Nc2cc(S(=O)(=O)N3CCOCC3)ccc2N2CCCC2)cc1,inactive,–
CCc1noc(C)c1C(=O)N(CC)c1nc2c(C)cccc2s1,"inconclusive [inhibitor, partial curve]",–
CC(=O)Nc1c(C(=O)Nc2ccc3c(c2)OCO3)oc2ccccc12,inactive,–
CCOC(=O)C1=C(CC)OC(N)=C(C#N)C1c1ccc(F)cc1F (stereo not drawn),"inconclusive [inhibitor, partial curve]",–
COc1ccccc1C1CC(=O)n2c(nc(-c3ccccc3)c2-c2ccccc2)S1 (stereo not drawn),inactive,–
CCOC(=O)c1c(NC(=O)/C=C/C(=O)O)sc(C)c1-c1ccc(C)c(C)c1,"inconclusive [inhibitor, partial curve]",–
C/C=C/Cn1c(SCCCc2ccccc2)nc2c1c(=O)[nH]c(=O)n2C,"inconclusive [inhibitor, partial curve]",–
C[C@H](CO)N1C[C@H](C)[C@@H](CN(C)Cc2ccc(Cl)c(Cl)c2)Oc2c(NC(=O)C3CC3)cccc2C1=O,"inconclusive [inhibitor, partial curve]",–
COc1cc2c(cc1OC)C(c1ccccc1Cl)N(C)CC2 (stereo not drawn),"inconclusive [inhibitor, full curve]",–
COC(=O)[C@@]12C[C@@H](CC(=O)NCCC(C)C)C(=O)N(Cc3ccc4c(c3)OCO4)C1=CCC(C)(C)C2,"inconclusive [inhibitor, full curve]",–
COc1ccccc1CCn1cnc(-c2ccc(OC)c(OC)c2)c1C(C)C,"inconclusive [inhibitor, partial curve]",–
COc1ccc(C(C(=O)c2ccccc2)c2ccccc2)cc1 (stereo not drawn),"inconclusive [inhibitor, partial curve]",–
O=C1CCCC2=C1C(c1ccc(O)cc1)c1c(ccc3ccccc13)N2 (stereo not drawn),"inconclusive [inhibitor, full curve]",–
ClC(Cl)(Cl)c1nc2ccccc2n2nncc12,"inconclusive [inhibitor, partial curve]",–
COCCN1C=C(C(=O)OC)C(c2ccc(Cl)cc2)C(C(=O)OC)=C1,"inconclusive [inhibitor, full curve]",–
Cc1sc2ncnc(NCC3(N4CCOCC4)CCCCC3)c2c1C,inactive,–
NC(CSC1(c2cccc3ccccc23)c2ccccc2-c2ccccc21)C(=O)O (stereo not drawn),"inconclusive [inhibitor, single point]",–
